Results on 1 protein are retold here after paper PMC4338599 (Science (New York, N.Y.), 2015).

The data set concerns the molecule itself. Kind of data set: crystal structure.

B1: PAXX […] (PAXX^[…]) (domain or fragment)
chain: not shown
With B1, the binding result is reported as “binds”.
